The values below come from publication PMC4336329 (PLoS ONE, 2015).

Screen size: about 310,000 compounds; about 2,200 (0.71%) showed an effect of 50% or more. Effects have a minus sign here. This is one part of the list.

The target in the experiment is human ether-à-go-go-related gene (hERG) potassium channel (human, UniProt Q12809). Nature of the experiment: primary screen, population patch clamp on CHO cells stably expressing hERG.
Sequence of human ether-à-go-go-related gene (hERG) potassium channel (Q12809 whole entry, looked up): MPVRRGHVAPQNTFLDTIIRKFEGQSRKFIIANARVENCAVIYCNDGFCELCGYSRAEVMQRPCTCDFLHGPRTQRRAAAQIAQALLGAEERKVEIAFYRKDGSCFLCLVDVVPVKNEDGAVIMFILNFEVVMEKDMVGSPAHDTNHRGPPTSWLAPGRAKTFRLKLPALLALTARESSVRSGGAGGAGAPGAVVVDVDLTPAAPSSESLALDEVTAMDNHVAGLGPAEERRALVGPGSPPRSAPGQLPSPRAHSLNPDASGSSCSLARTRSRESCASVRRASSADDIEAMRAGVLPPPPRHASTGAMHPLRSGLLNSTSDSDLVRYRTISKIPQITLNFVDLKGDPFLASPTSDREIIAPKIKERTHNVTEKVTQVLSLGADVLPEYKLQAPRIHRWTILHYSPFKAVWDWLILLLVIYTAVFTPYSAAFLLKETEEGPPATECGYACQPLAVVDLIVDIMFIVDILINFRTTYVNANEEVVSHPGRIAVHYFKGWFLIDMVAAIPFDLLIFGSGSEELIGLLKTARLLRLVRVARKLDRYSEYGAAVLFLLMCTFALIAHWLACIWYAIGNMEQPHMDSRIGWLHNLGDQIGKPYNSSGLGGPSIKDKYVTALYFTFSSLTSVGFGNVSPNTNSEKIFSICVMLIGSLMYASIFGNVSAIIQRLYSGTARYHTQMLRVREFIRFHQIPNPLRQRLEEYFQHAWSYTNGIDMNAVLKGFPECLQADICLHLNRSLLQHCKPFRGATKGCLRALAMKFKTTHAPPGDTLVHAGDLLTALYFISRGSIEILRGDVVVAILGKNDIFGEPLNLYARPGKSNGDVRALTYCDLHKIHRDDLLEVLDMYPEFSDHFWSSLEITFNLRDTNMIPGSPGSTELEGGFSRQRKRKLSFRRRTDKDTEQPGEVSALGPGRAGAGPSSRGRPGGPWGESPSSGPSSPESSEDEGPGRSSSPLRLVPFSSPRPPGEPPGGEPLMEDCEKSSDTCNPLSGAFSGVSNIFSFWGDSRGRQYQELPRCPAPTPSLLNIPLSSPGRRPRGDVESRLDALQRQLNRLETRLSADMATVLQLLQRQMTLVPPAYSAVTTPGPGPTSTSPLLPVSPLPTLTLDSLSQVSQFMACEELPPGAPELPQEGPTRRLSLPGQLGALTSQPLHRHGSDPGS
In the case of `CC(=O)c1ccc(Cl)c(Cl)c1Cl`, the “hERG current change (%, negative = inhibition) at 1uM” value is 19.1%. For the compound `CCc1nc(Cl)c(C#N)c2c1CCCC2`, the “hERG current change (%, negative = inhibition) at 1uM” value came to 7.07%. Take `Cc1ccc(-n2nc3c([n+]2[O-])CCc2nonc2-3)cc1`: the “hERG current change (%, negative = inhibition) at 1uM” value was found to be 17.7%. The same measure for `CCN1CCN(C(=O)C2=CC(c3ccc(OC)cc3)=NS(=O)(=O)N2C)CC1`: 4.49%. The same measure for `CN(CC(=O)Nc1c(Cl)cccc1Cl)C(=O)c1ccc2nc[nH]c2c1`: 8.51%; for `Cc1ccc(-c2nc(-c3cccnc3)no2)c(C)c1`: 16.6%.

With `Cn1cnnc1SCCC(=O)Nc1ccc(Cl)cc1`, the “hERG current change (%, negative = inhibition) at 1uM” value was determined as 12.8%.

Turning to `COc1ccccc1OC(C)C(=O)Nc1ccc2c(c1)OCCO2` (stereo not drawn), the “hERG current change (%, negative = inhibition) at 1uM” value is -0.875%.

On to `O=C(OCC(=O)N1CCCC1=O)C1COc2ccccc2O1` (stereo not drawn), for which the “hERG current change (%, negative = inhibition) at 1uM” value was 11.1%. The figure for `Cc1ccccc1NC(=O)/C(C#N)=C/c1ccc(-c2ccc(Cl)c(C(=O)O)c2)o1` is 16.4%; for `Cc1cnc(NC(=O)c2ccc3c(c2)C(=O)N(Cc2cccnc2)C3=O)s1` it is 0.185%; for `O=C(c1ccccc1)N(Cc1cccc(Br)c1)C1CCS(=O)(=O)C1` (stereo not drawn) it is -0.927%.

Consider `Fc1ccc(CNc2nc(-c3cccnc3)nc3ccccc23)cc1`, for which the “hERG current change (%, negative = inhibition) at 1uM” value was 4.06%. The figure for `O=S(=O)(Nc1ccc(Cc2ccncc2)cc1)N1CCCC1` is 8.02%. In the case of `Oc1ccc2ccccc2c1/C=N/Nc1nnc(-c2ncc[nH]2)c2ccccc12`, the “hERG current change (%, negative = inhibition) at 1uM” value amounted to 17.4%. As to `CC1CCN(C(=O)c2ccc(COc3ccccc3Cl)o2)CC1`, the “hERG current change (%, negative = inhibition) at 1uM” value was found to be 5.5%. The figure for `Cc1cc(NC(=O)C2Oc3ccccc3OC2C)no1` (stereo not drawn) is 17.8%; for `Cc1ccc(NC(=O)CSCC(=O)Nc2ccc(N3CCOCC3)c(Cl)c2)cc1` it is 5.04%. As to `Cc1ccc(CCNC(=O)c2nc(CS(=O)(=O)c3ccc(Cl)cc3)no2)cc1`, the “hERG current change (%, negative = inhibition) at 1uM” value is on record as 22.4%. The same measure for `CCN1C(=O)[C@H]2[C@@H](c3ccc(C)cc3)N3C(=O)N(c4cccc(C)c4)C(=O)[C@@]3(Cc3ccccc3)[C@H]2C1=O`: 6.48%; for `CCN(CC)CC(=O)N1c2ccccc2Sc2ccc(Cl)cc21.Cl`: 15.2%. With `CCCCCSc1cc(OC)c(CCN)cc1OC.O=C(O)/C=C\C(=O)O`, the “hERG current change (%, negative = inhibition) at 1uM” value is on record as -11.6%. Consider `O=C(COC(=O)/C=C/c1ccccc1[N+](=O)[O-])NCC(F)(F)F`, for which the “hERG current change (%, negative = inhibition) at 1uM” value is given as 4.11%. With `CCOC(=O)Cc1nnc(NC(=O)c2ccco2)s1`, the “hERG current change (%, negative = inhibition) at 1uM” value is 5.45%.

Regarding `c1ccc(NC(=NCc2ccco2)c2ccccc2)cc1`, the “hERG current change (%, negative = inhibition) at 1uM” value came to 6.52%. `CC(Oc1ccc(Cl)cc1Cl)C(=O)NN=C1CCN(C)CC1` (stereo not drawn): the “hERG current change (%, negative = inhibition) at 1uM” value came to 4.85%. The same measure for `O=C(Cc1ccccc1)NCC(=O)N1CCN(c2ccccc2)CC1`: 11.4%.

In the case of `O=C(Nc1ccc(Cc2ccncc2)cc1)c1ccc(N2CCOCC2)c([N+](=O)[O-])c1`, the “hERG current change (%, negative = inhibition) at 1uM” value is listed as -14.3%. The same measure for `COc1ccc(CCNC(=O)c2c(N)n(CCN3CCOCC3)c3nc4ccccc4nc23)cc1OC`: 3.51%.

Consider `CCOC(=O)/C(=C/c1c[nH]c2ccccc12)NC(C)=O`, for which the “hERG current change (%, negative = inhibition) at 1uM” value was 2.55%. Regarding `O=[N+]([O-])c1cccc2nc(-c3ccccc3)c(-c3ccccc3)nc12`, the “hERG current change (%, negative = inhibition) at 1uM” value came out at 5.52%.

In the case of `Cc1cc(C)c(S(=O)(=O)/N=C2\C=C(NS(=O)(=O)c3ccccc3)C(=O)c3ccccc32)c(C)c1`, the “hERG current change (%, negative = inhibition) at 1uM” value is recorded as -1.09%. The figure for `CCC(=O)Nc1ccccc1Oc1ccccc1` is 12.7%; for `CC(=O)Nc1ccc2[nH]c(C)c(CC=C(Cl)Cl)c(=O)c2c1` it is 10.7%; for `FC(F)(F)c1cccc(NC(=S)NCCN2CCOCC2)c1` it is 0.747%. The same measure for `COc1ccc(NC(=O)NNS(=O)(=O)c2ccc(Br)cc2)cc1`: 17.8%; for `Cc1ccc(O)c(Sc2cc(C)ccc2O)c1`: 6.97%; for `Cc1sc2ncn(CC(=O)N3CCOCC3)c(=O)c2c1-c1ccccc1`: 12.8%. The figure for `Cc1cc(C)n2nc(CCc3ccccc3)nc2n1` is -15.2%; for `Cc1ccc2nc(NCc3ccccc3)c(C=NCc3ccccc3)c(=O)n2c1` it is 6.24%. Consider `COc1ccc(CCN2C(=S)N(C)C(=O)C2CC(=O)Nc2ccc(OC)cc2)cc1` (stereo not drawn), for which the “hERG current change (%, negative = inhibition) at 1uM” value was 10.4%.

On to `COc1ccc(-c2noc(=O)n2Cc2ccccc2Cl)cc1`, for which the “hERG current change (%, negative = inhibition) at 1uM” value is -1.41%. The figure for `COC(=O)c1c(NS(=O)(=O)c2cccs2)sc2c1CCCC2` is 10.6%; for `CCN(CC)Cc1c(-c2ccccc2)[nH]c2ccc(C)cc2c1=O` it is 18.4%.

For the compound `CNC(=O)CC1C(=O)N(c2ccc(F)cc2)C(=S)N1NC(=O)c1ccc(Cl)cc1` (stereo not drawn), the “hERG current change (%, negative = inhibition) at 1uM” value is listed as 6.02%.
